From PubChem BioAssay AID1347428 (National Center for Advancing Translational Sciences (NCATS), 2020)
Among all 91,000 compounds or so, about 290 (0.32%) were called active. Inconclusive means that the source gave no clear call. Such entries were picked first, then a sample of the others. Calls follow the shape of the dose curve; as a rule, active = well fitted inhibition curve with a large enough effect; inconclusive = small, poorly fitted or top-dose-only effect; inactive = no such curve, though single readings can be large or run the other way. Potencies of inconclusive entries are doubtful fits and often do not repeat.
Also: nearly all actives have a fitted effect of over 25% in size.
Potency is read from the fitted curve at half-maximal effect; tags tell the direction and shape of the fitted curve.

What follows are molecules tested against Single-stranded DNA cytosine deaminase (Homo sapiens) (UniProt Q9GZX7) (assay: Primary qHTS assay for inhibitors of Activation Induced Cytidine Deaminase (AID): AID signal). Conditions: AID deamination FRET fluorescence, UDG-coupled, 4 h; series mostly up to 115 µM.
Chain of UniProt Q9GZX7 (Q9GZX7 whole entry, looked up): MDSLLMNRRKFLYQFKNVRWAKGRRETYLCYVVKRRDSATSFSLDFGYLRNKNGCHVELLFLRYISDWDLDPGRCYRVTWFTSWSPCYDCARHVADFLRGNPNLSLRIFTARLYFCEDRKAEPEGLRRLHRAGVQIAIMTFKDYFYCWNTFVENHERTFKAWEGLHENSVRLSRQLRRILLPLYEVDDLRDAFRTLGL
With `Cc1ccc(-c2noc(CCC(=O)N(C)c3ccccc3F)n2)cc1` the Potency was inconclusive: 7.94 µM [inhibitor, full curve, poor fit].
`N#Cc1c(N)c(C(=O)c2ccc3c(c2)OCCO3)n2c1CCC2` was tested, and the Potency was “inactive”.
With `CCCCn1c(CNC(=O)C23CC4CC(CC(C4)C2)C3)nnc1SCC(=O)Nc1ccc(C)cc1` the Potency was active: 44.7 µM.
`O=C(COC(=O)c1ccc(N2CCCC2=O)cc1)c1ccc2c(c1)CCCC2` was tested, and the Potency was “inactive”.
`CCOc1ccc(NC(=O)Cn2c(=O)n(Cc3ccc4c(c3)OCO4)c(=O)c3ccc(C(=O)NC4CCCCC4)cc32)cc1` was tested, and the Potency was inconclusive: 89.1 µM [inhibitor, single point].
For `COc1ccc(Nc2c3c(nc4ccccc24)CCC3)cc1Cl`, the Potency was inconclusive: 56.2 µM [inhibitor, partial curve, poor fit].
For `CC(Sc1nnc(-c2ccco2)n1C(C)C)C(=O)Nc1nccs1` (stereo not given), the Potency was “inactive”.
With `COc1ccc(OC)c(S(=O)(=O)N2CCC(n3c(C)nc4cccnc43)CC2)c1` the Potency was “inactive”.
In the case of `CCOC(=O)c1c(C)sc(-c2c(-c3ccccc3)[nH]c3[nH]c(=O)[nH]c(=O)c23)c1O`, the Potency is reported as inconclusive: 89.1 µM [inhibitor, single point].
In the case of `N#Cc1ccc(NCCNc2cccc3ccccc23)nc1`, the Potency is reported as “inactive”.
For `Cc1ccc(S(=O)(=O)c2cn(Cc3ccccc3)c3cc(N4CCCCC4)c(F)cc3c2=O)cc1`, the Potency was inconclusive: 3.16 µM [inhibitor, full curve, poor fit].
In the case of `COc1ccc(NCc2cccn2-c2nnc(N3CCCCCC3)s2)cc1`, the Potency is reported as inconclusive: 3.98 µM [inhibitor, full curve, poor fit].
In the case of `CC(=O)c1ccc(NC(=O)C2CCN(c3nnc(C)c4c(C)n(-c5ccccc5)nc34)CC2)cc1`, the Potency is reported as inconclusive: 56.2 µM [inhibitor, partial curve, poor fit].
`CC(=O)N(C1=C(C#N)C(=O)CC(C)(C)C1)c1ccccc1` was tested, and the Potency was “inactive”.
`CCc1ccc(S(=O)(=O)c2cn(Cc3ccccc3)c3cc(N4CCCC4)c(F)cc3c2=O)cc1` was tested, and the Potency was inconclusive: 63.1 µM [inhibitor, partial curve, poor fit].
`CN(C)c1ccc(/C=N/Nc2ccc(F)cc2F)cc1` was tested, and the Potency was “inactive”.
`COc1ccc(C(=O)c2cn(Cc3ccccc3F)c3cc4c(cc3c2=O)OCCO4)cc1OC` was tested, and the Potency was inconclusive: 39.8 µM [inhibitor, partial curve].
In the case of `N#Cc1ccc(/C=N/Nc2c(Cl)cc(Cl)cc2Cl)cc1`, the Potency is reported as “inactive”.
With `CCCc1cc(C(=O)Nc2ccccc2C#N)cs1` the Potency was “inactive”.
`CC1C(=O)N2CCCc3cc(S(=O)(=O)N4CCc5ccccc54)cc1c32` (stereo not given) was tested, and the Potency was “inactive”.
`Cn1c(/C(C#N)=C/c2ccccc2Br)nc2ccccc21` was tested, and the Potency was inconclusive: 50.1 µM [inhibitor, partial curve, poor fit].
With `Cn1c(=O)c2sccc2n2c(CCCC(=O)Nc3ccc(Oc4ccccc4)cc3)nnc12` the Potency was inconclusive: 70.8 µM [inhibitor, partial curve, poor fit].
With `CCC(CC)NC(=O)COC(=O)c1cc(S(=O)(=O)N(CC)CC)ccc1N1CCCCC1` the Potency was “inactive”.
In the case of `C/C(Cc1ccccc1)=N\NC(=O)C(C)C`, the Potency is reported as “inactive”.
For `CC(=O)Nc1ccc(C)c(NC(=O)C2(c3ccc(F)cc3)CC2)c1`, the Potency was “inactive”.
For `Cc1ccc(C)c(N2CCN(S(=O)(=O)c3c(C(=O)N4CCC(C)CC4)c(C)n(C)c3C)CC2)c1`, the Potency was inconclusive: 28.2 µM [inhibitor, full curve, poor fit].
For `O=C(COc1ccccc1)NCC(c1ccc(Cl)cc1)N1CCCCC1` (stereo not given), the Potency was inconclusive: 56.2 µM [inhibitor, partial curve, poor fit].
With `CCc1ccc(NC(=O)CSc2nc3c(c(=O)[nH]2)CN(Cc2ccc4c(c2)OCO4)CC3)cc1` the Potency was inconclusive: 22.4 µM [inhibitor, full curve].
For `COC(=O)CC(N)c1ccc(C)cc1C` (stereo not given), the Potency was “inactive”.
With `CCN(Cc1ccccc1)c1ncnc2c1cnn2-c1ccc(F)cc1` the Potency was inconclusive: 50.1 µM [inhibitor, partial curve, poor fit].
With `Cc1ccc(-c2nnc(Nc3cccc(Cl)c3)c3ccccc23)cc1S(=O)(=O)N1CCN(C)CC1` the Potency was inconclusive: 31.6 µM [inhibitor, full curve, poor fit].
`COCCn1c(CN2CCC(C(N)=O)CC2)nc2c1c(=O)n(C)c(=O)n2C` was tested, and the Potency was “inactive”.
For `COc1ccc(C(=O)c2sc3nc4c(c(C(F)(F)F)c3c2N)CN(C(C)=O)CC4)cc1OC`, the Potency was inconclusive: 35.5 µM [inhibitor, partial curve, poor fit].
For `O=C(Cc1ccc(Cl)c(Cl)c1)NCC1CN(Cc2ccccc2)CCO1` (stereo not given), the Potency was “inactive”.
For `Cc1ccc(-c2c3c(=O)n(C)c(=O)n(C)c3c3n2-c2ccccc2NC3c2ccc(C)cc2O)cc1` (stereo not given), the Potency was inconclusive: 100 µM [inhibitor, single point].
`Cc1c(Cl)cccc1NC(=O)Cn1cnc2nc3c(cc2c1=O)CCCC3` was tested, and the Potency was inconclusive: 39.8 µM [inhibitor, single point].
With `Cc1ccc(S(=O)(=O)c2cn(C)c3cc(N4CCCC(C)C4)c(F)cc3c2=O)c(C)c1` (stereo not given) the Potency was inconclusive: 39.8 µM [inhibitor, partial curve, poor fit].
`O=Cc1ccc(OCc2cccc3ccccc23)c(Cl)c1` was tested, and the Potency was inconclusive: 56.2 µM [inhibitor, partial curve, poor fit].
`Cc1ccc(C2=NN(CC(=O)NCCN(CC(C)C)CC(C)C)C(=O)CC2)cc1` was tested, and the Potency was inconclusive: 31.6 µM [inhibitor, full curve, poor fit].
`CCOC(=O)c1cc2cc(NC(=O)C3CC(=O)Nc4ccccc43)ccc2s1` (stereo not given) was tested, and the Potency was “inactive”.
With `CCCCNC(=O)CSc1nnc(C)c2c(C)n(-c3ccccc3)nc12` the Potency was inconclusive: 39.8 µM [inhibitor, full curve, poor fit].
For `COc1ccc(C)cc1NC(=O)c1ccc2c(c1)CCN2S(=O)(=O)c1ccc(Cl)cc1`, the Potency was inconclusive: 31.6 µM [inhibitor, partial curve, poor fit].
In the case of `Cc1cccc(-c2noc(-c3ccc(N4CCN(C)CC4)c([N+](=O)[O-])c3)n2)c1`, the Potency is reported as inconclusive: 44.7 µM [inhibitor, partial curve].
`CCc1ccccc1N(C(C)=O)c1nc(COc2ccc(Cl)cc2C(N)=O)cs1` was tested, and the Potency was inconclusive: 25.1 µM [inhibitor, partial curve, poor fit].
With `CC(C)n1c(SCC(=O)Nc2ccc(F)cc2)nc2c(oc3ccccc32)c1=O` the Potency was inconclusive: 39.8 µM [inhibitor, partial curve].
For `COc1cccc(NC(=O)Nc2ccc3nc(N4CCOCC4)cc(C)c3c2)c1`, the Potency was “inactive”.
For `COc1ccc(CNC(=O)CCC(=O)N2CC3CCCN3c3ccccc32)c(OC)c1` (stereo not given), the Potency was “inactive”.
`CC(C)C(=O)/C(C#N)=C\c1ccc(OCc2ccccc2F)cc1` was tested, and the Potency was inconclusive: 44.7 µM [inhibitor, partial curve].
With `CCN(c1cccc(C)c1)S(=O)(=O)c1nnc(NC(=O)c2ccccc2Cl)s1` the Potency was inconclusive: 56.2 µM [inhibitor, partial curve, poor fit].
`COc1ccccc1N1CCN(C(=O)CSc2nc3ccccc3nc2Cc2ccccc2)CC1` was tested, and the Potency was inconclusive: 35.5 µM [inhibitor, partial curve].
With `Cc1c(C(=O)NCCc2ccc(Cl)cc2)sc2nc3n(c(=O)c12)CCCC3` the Potency was inconclusive: 11.2 µM [inhibitor, full curve, poor fit].
For `COc1ccc(NC(=O)CSc2nc3nc(C)c(Cc4ccccc4Cl)c(C)n3n2)cc1OC`, the Potency was inconclusive: 50.1 µM [inhibitor, partial curve, poor fit].
`CCn1c(C(=O)N2CCCC(C(=O)N3CCN(c4cc(C)ccc4C)CC3)C2)cc2sccc21` (stereo not given) was tested, and the Potency was inconclusive: 17.8 µM [inhibitor, full curve, poor fit].
`Cc1ccc(-n2ncc(C(=O)N3CCN(c4ccc(Cl)cc4)CC3)c2C2CCN(C(=O)OC(C)(C)C)CC2)c(C)c1` was tested, and the Potency was inconclusive: 15.8 µM [inhibitor, full curve, poor fit].
For `COc1ccc(-c2nnc(C3CCN(S(=O)(=O)c4ccc(C)c(C)c4)CC3)o2)cc1`, the Potency was inconclusive: 44.7 µM [inhibitor, partial curve, poor fit].
In the case of `Cc1cc(Cl)ccc1OCC(=O)N(Cc1ccco1)Cc1ccco1`, the Potency is reported as inconclusive: 79.4 µM [inhibitor, partial curve, poor fit].
With `COc1ccc(-c2cn3cccnc3n2)cc1NC(=O)c1cc(C)cc(C)c1` the Potency was inconclusive: 20 µM [inhibitor, full curve, poor fit].
In the case of `O=C(COC(=O)C12CC3CC(CC(Br)(C3)C1)C2)Nc1ccccc1[N+](=O)[O-]`, the Potency is reported as “inactive”.
In the case of `O=C1CSC2(C(=O)N(Cc3ccccc3)c3ccccc32)N1c1ccc(Cl)cc1` (stereo not given), the Potency is reported as inconclusive: 31.6 µM [inhibitor, partial curve, poor fit].
With `O=C(Nc1ccc(Br)cc1F)N1CCC2(CC1)Oc1ccccc1C(=O)N2Cc1ccccc1F` the Potency was inconclusive: 7.08 µM [inhibitor, full curve, poor fit].
`CCOCCCNCc1sccc1C` was tested, and the Potency was “inactive”.
For `CSc1cccc(NS(=O)(=O)c2cn(C)c(C)n2)c1`, the Potency was “inactive”.
`CCOC(=O)c1cc(-c2cc(OC)c(OC)c(OC)c2)nc2ccccc12` was tested, and the Potency was “inactive”.
With `CCc1c(-c2ccccc2)nc2ccccc2c1C(=O)NCc1ccc(C)cc1` the Potency was inconclusive: 14.1 µM [inhibitor, full curve, poor fit].
`O=C(CSc1ncnc2sc3c(c12)CCC3)N1CCCc2ccccc21` was tested, and the Potency was “inactive”.
